In the supplement of paper PMC9446081:
Screen size: about 39,000 compounds; about 220 (0.56%) showed activity. Some of the results follow.

Test system: Escherichia coli K-12 BW25113
Assay: relative growth (OD600 normalised to plate interquartile mean) (fraction); higher = less growth inhibition, active = 0.2 or less
Details: 50 µM; LB; incubation time: overnight (16-24 h)
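Further: static incubation at 37 °C against the wild-type strain, values averaged over two biological replicates.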

Row | SMILES | relative growth
1 | C[C@H]1CN([C@@H](C)CO)C(=O)c2cc(NC(=O)CCCCCC(=O)Nc3ccccc3N)ccc2O[C@H]1CN(C)C(=O)Nc1ccc(C(F)(F)F)cc1 | inactive: 1
2 | Cc1noc(C)c1S(=O)(=O)Nc1ccc2c(c1)CC(=O)N([C@@H](C)CO)C[C@H](C)[C@H](CN(C)Cc1ccc3c(c1)OCO3)O2 | inactive: 1
3 | COC(=O)c1c2oc(c1C(=O)OC)C(=O)N[C@@H](Cc1ccccc1)Cn1cc(nn1)CNC(=O)[C@H](Cc1ccccc1)NC(=O)N[C@@H](CO)CC2 | inactive: 0.991
4 | CCS(=O)(=O)Nc1ccc2c(c1)C(=O)N(C)C[C@H](OC)[C@@H](C)CN(Cc1nccs1)[C@H](C)CO2 | inactive: 0.98
5 | O=C(C[C@H]1CC[C@H]2[C@@H](COC[C@@H](O)CN2C(=O)c2ccc3c(c2)OCO3)O1)NCCN1CCCC1 | inactive: 0.997
6 | COc1ccc(CN(C)C[C@H]2Oc3c(NC(=O)c4cc(C)nn4C)cccc3C(=O)N([C@@H](C)CO)C[C@@H]2C)cc1 | inactive: 0.994
7 | COC(=O)c1ccc2c(c1)NC(=O)C2 | inactive: 0.99
8 | CN(C)CC(=O)N1[C@@H]2c3ccc(-c4ccncc4)c(=O)n3C[C@H]1[C@H](CO)[C@H]2C(=O)NC1CCC1 | inactive: 1.01
9 | C[C@@H]1O[C@@H](O[C@@H]2[C@@H](O)[C@H](O)[C@@H](CO)O[C@H]2c2c(O)cc3oc(-c4ccc(O)cc4)cc(=O)c3c2O)[C@H](O)[C@H](O)[C@H]1O | inactive: 0.993
10 | CC(=O)Nc1ncc(CN2CCOCC2)s1 | inactive: 1.03
11 | CC(Cc1ccc(O)c(O)c1)(NN)C(=O)O (stereo not drawn) | inactive: 0.881
12 | Cc1cc(NS(=O)(=O)c2ccc(N)cc2)nc(C)n1 | inactive: 1.02
13 | C/C=C/[C@@H](CCn1cc(CCO[Si](C(C)C)(C(C)C)C(C)C)nn1)[Si](C)(C)c1ccc(OC)cc1 | inactive: 1.06
14 | Cc1cc2cc(C)nn2c(N)n1 | inactive: 0.985
15 | COc1ccc(NC(=O)Nc2cccc3c2O[C@@H](CN(C)Cc2ccc(C(=O)Nc4ccccc4N)cc2)[C@@H](C)CN([C@H](C)CO)C3=O)cc1 | inactive: 1.01
16 | Cc1ccc(S(=O)(=O)N(C)C[C@@H]2OCCCC[C@H](C)Oc3ccc(NC(=O)NC4CCCCC4)cc3C(=O)N([C@H](C)CO)C[C@@H]2C)cc1 | inactive: 0.999
17 | CS(=O)(=O)Nc1ccc2c(c1)[C@H]1C[C@H](CC(=O)NCC3CC3)O[C@@H](CO)[C@H]1O2 | inactive: 1.02
18 | C[C@H](CO)N1C[C@H](C)[C@H](CN(C)C(=O)Nc2cccc(C(F)(F)F)c2)OCc2cn(nn2)CCCC1=O | inactive: 0.993
19 | COC(=O)c1cncn1C | inactive: 0.982
20 | C=CCC[C@H](Cc1ccc(F)cc1)C(=O)OC[C@H](Cc1c[nH]c2ccccc12)NC(=O)[C@@H](CC=C)CC(=O)N[C@@H](CO)Cc1ccccc1 | inactive: 0.995
21 | CCC(=O)N[C@@H]1CC[C@@H](CC(=O)OC)O[C@@H]1CO | inactive: 1

Row | SMILES | relative growth
22 | C[C@H]1CN([C@@H](C)CO)C(=O)c2cccc(NC(=O)c3nc4ccccc4s3)c2O[C@@H]1CN(C)C(=O)Nc1cccc2ccccc12 | inactive: 1.02
23 | C=C[C@@H](N)CCC(=O)O | inactive: 0.998
24 | COc1ccc([Si](C)(C)[C@H]2[C@H](CCO)O[C@@]3(C(=O)N(Cc4ccccc4)c4ccc(N5CCCCC5=O)cc43)[C@@H]2C)cc1 | inactive: 1.04
25 | CCCNC(=O)N1C[C@@H](C)[C@@H](OC)CN(C)C(=O)c2cc(NS(=O)(=O)CC(F)(F)F)ccc2OC[C@H]1C | inactive: 1.01
26 | O=C(C[C@H]1CC[C@H]2[C@@H](COC[C@@H](O)CN2C(=O)Nc2ccc(F)cc2)O1)NCCCN1CCOCC1 | inactive: 0.983
27 | C=CCN1C[C@@H](C(=O)O)CCC1=O | inactive: 1.02
28 | COc1cccc(C#Cc2ccc([C@@H]3[C@@H](CO)N4C(=O)CN(S(=O)(=O)c5ccccc5C)C[C@H]34)cc2)c1 | inactive: 1.05
29 | COc1ccccc1OCC(O)CN1CCN(CC(=O)Nc2c(C)cccc2C)CC1.Cl.Cl (stereo not drawn) | inactive: 1.04
30 | C[C@@H]1CCCCO[C@H](CN(C)C(=O)Nc2ccc3c(c2)OCO3)[C@@H](C)CN([C@H](C)CO)C(=O)c2cc(NC(=O)C3CCCCC3)ccc2O1 | inactive: 0.989
31 | O=C(CN1CCOCC1)N[C@H]1CC[C@@H](CCn2cc(C3CCCC3)nn2)O[C@H]1CO | inactive: 0.982
32 | C[C@@H]1CCCCO[C@H](CN(C)S(C)(=O)=O)[C@@H](C)CN([C@H](C)CO)C(=O)c2cc(NS(=O)(=O)c3ccc(F)cc3)ccc2O1 | inactive: 1
33 | CCCNC(=O)[C@@H]1c2ccccc2C(=O)N(Cc2cc(C(F)(F)F)cc(C(F)(F)F)c2)[C@H]1c1ccc(CO)cc1 | inactive: 1.01
34 | Cc1ccc(S(=O)(=O)Nc2ccc3c(c2)C(=O)N([C@H](C)CO)C[C@@H](C)[C@H](CN(C)S(=O)(=O)c2ccc(Cl)cc2)OCCCC[C@@H](C)O3)cc1 | inactive: 1.02
35 | C[C@H](CO)N1C[C@H](C)[C@@H](CN(C)Cc2ccncc2)Oc2c(NS(=O)(=O)c3cccs3)cccc2C1=O | inactive: 0.991
36 | C[C@H](CO)N1C[C@H](C)[C@@H](CN(C)C(=O)Nc2ccc(N3CCN(C)CC3)cc2)OCc2cn(nn2)CCCC1=O | inactive: 0.983
37 | C[C@H](CO)N1C[C@H](C)[C@@H](CN(C)S(=O)(=O)c2ccc(Cl)cc2)Oc2ccc(NS(=O)(=O)c3cn(C)cn3)cc2CC1=O | inactive: 1.03
38 | CC(C)NC(=O)N(C)C[C@@H]1Oc2ccc(NC(=O)C3CCCCC3)cc2C(=O)N([C@H](C)CO)C[C@H]1C | inactive: 0.97
39 | C[C@H](CO)N1C[C@H](C)[C@H](CN(C)S(=O)(=O)c2ccccc2)Oc2c(NC(=O)C3CC3)cccc2C1=O | inactive: 0.99
40 | Cc1ccc(S(=O)(=O)NC(=O)NN2CCCCCC2)cc1 | inactive: 1.06
41 | O=C(CCCCCNC(=O)OCc1ccc(CO[C@H]2C[C@@H](C3CCCCC3)C=C(C(=O)N3CCN(Cc4ccccc4)CC3)O2)cc1)NO | inactive: 1.01
42 | Cc1noc(C)c1NC(=O)Nc1ccc2c(c1)C(=O)N([C@H](C)CO)C[C@H](C)[C@H](CN(C)Cc1ccccc1)OCCCC[C@@H](C)O2 | inactive: 0.984

Row | SMILES | relative growth
43 | C[C@@H]1CN([C@H](C)CO)C(=O)c2cccc(NS(=O)(=O)c3ccccc3)c2O[C@@H]1CN(C)S(=O)(=O)c1ccccc1 | inactive: 0.994
44 | C[C@@H]1C(=O)O[C@H]2[C@H](O)[C@@]34[C@H]5C[C@@H](C(C)(C)C)[C@]36[C@@H](OC(=O)[C@@H]6O)O[C@@]4(C(=O)O5)[C@@]12O | inactive: 0.996
45 | C#CCN(O[C@@H](/C=C/[C@@H](O)CCn1cc(-c2cccc(/C=C/C(=O)NO)c2)nn1)C1CC1)[C@@H](Cc1ccccc1)C(=O)OC | inactive: 1.01
46 | CCCC#Cc1ccc2c(c1)O[C@H](CN(C)S(=O)(=O)c1cccc(OC)c1)[C@H](C)CN([C@@H](C)CO)S2(=O)=O | inactive: 1.01
47 | C[C@H]1CN([C@@H](C)CO)C(=O)c2cccc(NS(C)(=O)=O)c2O[C@H]1CN(C)Cc1ccc(C(=O)Nc2ccccc2N)cc1 | inactive: 0.999
48 | COCCN1CCN(C)C2(CCN(C(=O)[C@H]3CCCO3)CC2)C1=O | inactive: 0.998
49 | C[C@@H]1CN([C@H](C)CO)C(=O)c2cc(NS(=O)(=O)c3cn(C)cn3)ccc2O[C@@H]1CN(C)C(=O)NC1CCCCC1 | inactive: 0.98
50 | C[C@H](CO)N1C[C@H](C)[C@@H](CN(C)C(=O)Nc2cccc(F)c2)Oc2cc(C#CC3(O)CCCC3)ccc2S1(=O)=O | inactive: 0.996
51 | Cc1onc(-c2ccccc2)c1C#N | inactive: 0.989
52 | O=C(CCCCCC(=O)N/N=C/[C@H](O)[C@@H](O)[C@H](O[C@@H]1O[C@H](CO)[C@H](O)[C@H](O)[C@H]1O)[C@H](O)CO)NO | inactive: 1.01
53 | CC(C)NC(=O)Nc1ccc2c(c1)C(=O)N([C@H](C)CO)C[C@@H](C)[C@H](CN(C)C(=O)Nc1ccccc1)OCCCC[C@@H](C)O2 | inactive: 0.988
54 | O=C(C[C@H]1CC[C@H](NC(=O)CN2CCOCC2)[C@@H](CO)O1)NC1CCC1 | inactive: 1
55 | COc1ccc(NC(=O)Nc2ccc3c(c2)CC(=O)N([C@@H](C)CO)C[C@@H](C)[C@@H](CN(C)S(=O)(=O)c2c(C)noc2C)O3)cc1 | inactive: 1.01
56 | C[C@H](CO)N1C[C@H](C)[C@@H](CN(C)C(=O)Nc2ccccc2)Oc2ccc(NC(=O)Nc3ccc(C(F)(F)F)cc3)cc2C1=O | inactive: 0.993
57 | O=C(O)CC(O)(CC(=O)O)C(=O)O.[LiH].[LiH].[LiH] | inactive: 1.01
58 | Cc1ccc(S(=O)(=O)N(C)C[C@@H]2OCCCC[C@H](C)Oc3ccc(NC(=O)Nc4ccc(C(F)(F)F)cc4)cc3C(=O)N([C@@H](C)CO)C[C@@H]2C)cc1 | inactive: 1
59 | C[C@@H]1CN([C@H](C)CO)C(=O)c2cccc(NC(=O)C3CC3)c2O[C@@H]1CN(C)S(=O)(=O)c1cccs1 | inactive: 1.04
60 | COc1ccc(CNC(=S)NN)cc1 | inactive: 0.966
61 | CC(C)(C)[C@H]1CCc2c(sc3nc(-c4ccccc4)cn23)C1 | inactive: 0.978
62 | C[C@H]1CN([C@@H](C)CO)C(=O)Cc2cc(NS(=O)(=O)c3ccc(Cl)cc3)ccc2O[C@H]1CN(C)S(C)(=O)=O | inactive: 0.978
63 | C[C@@H]1CCCCO[C@@H](CN(C)Cc2ccc(Cl)c(Cl)c2)[C@@H](C)CN([C@H](C)CO)C(=O)c2cc(NC(=O)Nc3ccccc3)ccc2O1 | inactive: 1.02
